Among the data in the antibiotic and cytotoxicity screens of Wong et al. (2023) are growth inhibition call values, retold here.

Some of the results follow.

This test has as its system S. aureus RN4220. Nature of the test: growth inhibition call (relative growth <= 0.2). Particulars: 50 µM.
For the compound `NCC1OC(OC2C(N)CC(N)C(OC3OC(CO)C(O)C(N)C3O)C2O)C(N)C(O)C1O.O=S(=O)(O)O` (stereo not given), the growth inhibition call is “active”. In the case of `C[C@@H]1CN([C@@H](C)CO)C(=O)c2cc(NC(=O)Nc3ccccc3)ccc2O[C@@H](C)CCCCO[C@@H]1CN(C)CC1CCCCC1`, the growth inhibition call was “inactive”.

Take `COc1c(O)cc2oc3cc(O)c(CC=C(C)C)c(O)c3c(=O)c2c1CC=C(C)C` [alpha-MANGOSTIN]: the growth inhibition call was “inactive”. Turning to `CN1CCc2c(n[nH]c2CNc2ncccn2)C1`, the growth inhibition call is “inactive”. `C=C1C2CCC3(C)C(c4ccoc4)OC(=O)CC13OC1CC(O)C(C)(C)C(CC(=O)OC)C12C` (stereo not drawn) [3alpha-HYDROXY-3-DEOXYANGOLENSIC ACID METHYL ESTER]: the growth inhibition call was “inactive”. Consider `O=C(C[C@@H]1CC=CC[C@H](NC(=O)OCC2c3ccccc3-c3ccccc32)C(=O)OC[C@H](Cc2ccccc2)NC1=O)N[C@@H](CO)Cc1ccccc1`, for which the growth inhibition call is “inactive”. Turning to `COc1cc2c(cc1OC)C1C(=O)c3c(O)cc4c(c3OC1CO2)C=CC(C)(C)O4` (stereo not drawn) [alpha-TOXICAROL (dl)], the growth inhibition call was “inactive”.

As to `CC(=O)OC1CCC2(C)C(CCC3C4CC=C(C(C)=O)C4(C)CCC32)C1` (stereo not drawn) [3-beta-ACETOXYALLOPREG-16-EN-20-ONE], the growth inhibition call is “inactive”. Regarding `COCC#Cc1cnc2c(c1)C(=O)N([C@@H](C)CO)C[C@@H](C)[C@H](CN(C)C(=O)Nc1ccccc1OC)O2`, the growth inhibition call is “inactive”. For the compound `CC(=O)OC1CCC2(C)C(CC(OC(C)=O)C3(C)C2CCC2(C)C(c4ccoc4)OC(=O)C4OC423)C1(C)C` (stereo not drawn) [3beta-ACETOXYDEOXODIHYDROGEDUNIN], the growth inhibition call is “inactive”. The result for `C[C@@H]1CN([C@H](C)CO)C(=O)Cc2cc(NS(=O)(=O)c3ccc(F)cc3)ccc2O[C@H]1CN(C)CC1CC1` reads “inactive”; that for `C=C1CCC=C(C)CCC2C1CC2(C)C.O` (single isomer, unassigned; (-)) [(-)E-CARYOPHYLLENE hydrate], “inactive”. As to `NC(Cc1cc(I)c(Oc2ccc(O)c(I)c2)c(I)c1)C(=O)[O-].[Na+]` [LIOTHYRONINE (L- isomer) SODIUM], the growth inhibition call is “inactive”. The value for `COc1ccc([Si](C)(C)[C@@H]2[C@@H](CCn3cc([C@H](O)c4ccccc4)nn3)O[C@]3(C(=O)N(Cc4cccc(N5CCC5=O)c4)c4ccccc43)[C@H]2C)cc1` was “inactive”; that for `NC(C(=O)O)C(O)C(=O)O` (stereo not drawn) [d,l-threo-3-HYDROXYASPARTIC ACID] was “inactive”; that for `C[C@@H]1CN([C@H](C)CO)C(=O)Cc2cc(NC(=O)CCCN(C)C)ccc2O[C@H]1CN(C)Cc1ccc(Oc2ccccc2)cc1` was “inactive”. With `CC(=O)OC1CCC2(C)C(CC(OC(C)=O)C3(C)C4=CC(=O)OC(c5ccoc5)C4(C)CCC23)C1(C)C` (stereo not drawn) [3alpha-ACETOXYDIHYDRODEOXYGEDUNIN], the growth inhibition call was “inactive”.

On to `O/N=C/c1c(Cl)cccc1Cl`, for which the growth inhibition call was “inactive”. The value for `CCC(CCC(C)C1CCC2C3CC=C4CC(O)CCC4(C)C3CCC12C)C(C)C` (stereo not drawn) [beta-SITOSTEROL] was “inactive”; that for `C[C@H](CCC(=O)O)[C@H]1CC[C@H]2[C@@H]3CC=C4C[C@@H](O)CC[C@]4(C)[C@H]3CC[C@]12C` [3beta-HYDROXYCHOL-5-ENIC ACID] was “inactive”.

In the case of `CC1(C)CCC2(C)CCC3(C)C(=CCC4C5(C)CCC(OC(=O)c6ccccc6)C(C)(C)C5CCC43C)C2C1` (stereo not drawn) [beta-AMYRIN BENZOATE], the growth inhibition call was “inactive”. On to `CC(C)Cn1c(=O)n(C)c(=O)c2[nH]cnc21`, for which the growth inhibition call was “inactive”. For `CC(=O)OC1CC2C(C)(C)C(O)CCC2(C)C2CCC3(C)C(=CC(=O)OC3c3ccoc3)C12C` (stereo not drawn) [3beta-HYDROXYDEOXODIHYDRODEOXYGEDUNIN], the growth inhibition call is “inactive”. The value for `CC(C)CC(NC(=O)C(C)NC(=O)CNC(=O)C(NC=O)C(C)C)C(=O)NC(C)C(=O)NC(C(=O)NC(C(=O)NC(C(=O)NC(Cc1c[nH]c2ccccc12)C(=O)NC(CC(C)C)C(=O)NC(Cc1c[nH]c2ccccc12)C(=O)NC(CC(C)C)C(=O)NC(Cc1c[nH]c2ccccc12)C(=O)NC(CC(C)C)C(=O)NC(Cc1c[nH]c2ccccc12)C(=O)NCCO)C(C)C)C(C)C)C(C)C` (stereo not given) [GRAMICIDIN (gramicidin A shown)] was “inactive”.

Turning to `COCC(=O)Nc1ccc2c(c1)OC[C@@H](C)N(Cc1ccccc1F)C[C@H](C)[C@@H](OC)CN(C)C2=O`, the growth inhibition call was “inactive”.
